Drawing on publication PMC4632296, this text covers binding for five molecules.

Protein sequences, listed by entry. Tags and fused reporters are not part of them. Lines headed by an entry give the natural chain unless they say otherwise; changes in a name come on top. Residues count along the entry.
UniProt Q96NA2: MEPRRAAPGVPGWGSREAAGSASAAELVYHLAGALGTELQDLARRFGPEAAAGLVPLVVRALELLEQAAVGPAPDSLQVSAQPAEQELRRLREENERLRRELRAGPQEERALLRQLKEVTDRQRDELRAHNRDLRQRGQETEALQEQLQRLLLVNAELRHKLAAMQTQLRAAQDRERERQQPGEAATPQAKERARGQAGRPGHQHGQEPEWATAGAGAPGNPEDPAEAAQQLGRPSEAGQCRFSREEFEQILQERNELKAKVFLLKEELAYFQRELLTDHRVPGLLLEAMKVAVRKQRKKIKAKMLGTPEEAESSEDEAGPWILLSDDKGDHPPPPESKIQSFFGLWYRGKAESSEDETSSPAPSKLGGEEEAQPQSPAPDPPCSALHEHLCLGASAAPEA
GST-RILP(1-198): residues 1-198 of Q96NA2
GST-RILP(199-401): residues 199-401 of Q96NA2
UniProt Q8IYI6, residues 122-333: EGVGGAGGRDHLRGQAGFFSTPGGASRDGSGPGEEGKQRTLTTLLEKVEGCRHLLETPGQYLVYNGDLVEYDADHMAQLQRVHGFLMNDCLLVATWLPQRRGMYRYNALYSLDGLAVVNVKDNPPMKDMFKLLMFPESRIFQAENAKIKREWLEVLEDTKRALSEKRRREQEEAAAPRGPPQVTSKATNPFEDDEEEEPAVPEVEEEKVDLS
UniProt Q96KP1, residues 1-120: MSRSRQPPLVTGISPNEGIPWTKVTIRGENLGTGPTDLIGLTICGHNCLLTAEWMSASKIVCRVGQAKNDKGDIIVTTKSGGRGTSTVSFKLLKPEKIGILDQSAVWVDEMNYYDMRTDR

The target of test [1] is T1, Myc-RalGDS in full length (1-914 aa) (human) (UniProt Q12967).
T1 sequence: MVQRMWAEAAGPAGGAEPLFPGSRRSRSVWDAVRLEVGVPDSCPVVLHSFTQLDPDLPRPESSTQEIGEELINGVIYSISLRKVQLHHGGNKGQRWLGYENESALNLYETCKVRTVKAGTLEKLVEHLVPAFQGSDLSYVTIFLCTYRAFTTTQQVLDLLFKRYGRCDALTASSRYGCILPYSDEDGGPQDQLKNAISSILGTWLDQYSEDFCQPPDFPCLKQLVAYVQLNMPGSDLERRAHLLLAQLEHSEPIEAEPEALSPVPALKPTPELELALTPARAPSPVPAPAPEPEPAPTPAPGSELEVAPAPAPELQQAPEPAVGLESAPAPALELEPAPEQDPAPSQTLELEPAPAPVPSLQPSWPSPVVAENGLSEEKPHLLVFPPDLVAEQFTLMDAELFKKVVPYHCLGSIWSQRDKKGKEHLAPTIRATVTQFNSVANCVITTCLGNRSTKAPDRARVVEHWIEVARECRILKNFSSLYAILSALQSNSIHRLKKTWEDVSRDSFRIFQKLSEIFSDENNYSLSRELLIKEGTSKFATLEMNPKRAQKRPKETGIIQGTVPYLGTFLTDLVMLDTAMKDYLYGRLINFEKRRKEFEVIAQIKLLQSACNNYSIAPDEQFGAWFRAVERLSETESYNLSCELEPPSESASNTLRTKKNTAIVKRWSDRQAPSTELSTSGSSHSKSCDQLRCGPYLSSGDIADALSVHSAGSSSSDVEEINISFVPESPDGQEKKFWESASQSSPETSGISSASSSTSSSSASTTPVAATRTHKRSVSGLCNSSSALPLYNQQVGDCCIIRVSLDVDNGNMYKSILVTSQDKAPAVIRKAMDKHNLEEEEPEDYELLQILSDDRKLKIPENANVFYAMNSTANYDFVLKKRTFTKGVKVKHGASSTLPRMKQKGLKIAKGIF
The test can be described thus: co-IP; MCF7 cells co-transfected with HA-RILP and myc-RalGDS constructs; precipitated with rabbit anti-myc antibody and protein A/G agarose, 4 C; blot with anti-HA and anti-myc.

Test [2] concerns the target T2, myc-RalGDS(GEF) (1-660aa) (human) (UniProt Q12967).
T2 sequence: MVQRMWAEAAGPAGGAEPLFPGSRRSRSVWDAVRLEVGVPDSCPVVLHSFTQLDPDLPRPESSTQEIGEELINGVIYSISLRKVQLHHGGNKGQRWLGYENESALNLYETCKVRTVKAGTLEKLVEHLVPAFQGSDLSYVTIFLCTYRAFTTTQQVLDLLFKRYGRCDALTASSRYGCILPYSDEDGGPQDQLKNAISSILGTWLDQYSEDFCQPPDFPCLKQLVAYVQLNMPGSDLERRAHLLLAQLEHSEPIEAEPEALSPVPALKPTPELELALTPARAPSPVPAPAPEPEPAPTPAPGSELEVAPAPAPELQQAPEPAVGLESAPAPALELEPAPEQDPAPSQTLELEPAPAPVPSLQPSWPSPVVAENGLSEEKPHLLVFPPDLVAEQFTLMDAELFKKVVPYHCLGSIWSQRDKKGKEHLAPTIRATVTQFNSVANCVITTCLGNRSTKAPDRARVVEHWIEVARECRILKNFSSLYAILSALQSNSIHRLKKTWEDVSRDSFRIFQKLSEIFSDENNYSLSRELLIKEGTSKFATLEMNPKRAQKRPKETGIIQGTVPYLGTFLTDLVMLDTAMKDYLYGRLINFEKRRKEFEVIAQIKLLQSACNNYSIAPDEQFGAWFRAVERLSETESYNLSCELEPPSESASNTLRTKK
The description is as above.

Test [3] has as its target T3, myc-RalGDS(RBD) (661-914 aa) (human) (UniProt Q12967).
T3 sequence: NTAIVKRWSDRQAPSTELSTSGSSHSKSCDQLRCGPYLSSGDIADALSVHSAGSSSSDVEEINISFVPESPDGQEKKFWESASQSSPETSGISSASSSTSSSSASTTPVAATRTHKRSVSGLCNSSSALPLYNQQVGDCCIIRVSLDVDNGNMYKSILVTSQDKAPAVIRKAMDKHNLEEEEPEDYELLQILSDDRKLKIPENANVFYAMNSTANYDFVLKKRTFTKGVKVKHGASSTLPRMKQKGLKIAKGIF
Described as above.

In the next test the target is GST-RILP (UniProt Q96NA2). The test can be described thus: pull-down; GST-fusion proteins (20 ug) immobilised on GST-Sepharose-4B resin; lysates of MCF7 or MDA-MB-231 cells, untransfected or transfected (myc-RalGDS constructs; GFP, GFP-RILP, GFP-RILP with myc-RalGDS; HA-RalA); 25 mM Tris-HCl, 100 mM NaCl, 1.0% Triton X-100, pH 7.4; western blot; only the target purified.

The target of the next test is GST-RILP(1-198) (UniProt Q96NA2). Described as above.
Another test addresses GST-RILP(199-401) (UniProt Q96NA2). The description is as above.
The target in the next test is GST-Exo84(RBD) (human) (UniProt Q8IYI6). The test is described as above.
A further test concerns the target GST-Sec5(RBD) (human) (UniProt Q96KP1). The test is described as above.

No constants are given. Whether binding was seen depends on the method and setting. Binding seen in cells or lysates may run through a third protein. Some entries that bind do so weakly or less than the wild type. For some assays here: Tags and fused reporters may be left off the sequences shown.

For the molecule HA-RILP (from UniProt Q96NA2 1-401), the binding entry is “binds” in test [1], “binds” in test [2] and “no binding” in test [3].

B1: myc-RalGDS(GEF) (1-660aa) (domain or fragment, UniProt Q12967 1-660)
chain: T2 sequence
As for B1, the binding result in the test with GST-RILP is listed as “binds”.

B2: endogenous RalGDS (protein, UniProt Q12967 1-914)
chain: T1 sequence
For the molecule B2, in the test with GST-RILP, the binding result was “binds”.

B3: Myc-RalGDS in full length (1-914 aa) (protein, UniProt Q12967 1-914)
chain: T1 sequence
As to B3, the binding entry in the test with GST-RILP is recorded as “binds”; with GST-RILP(1-198), “binds”; with GST-RILP(199-401) it was “no binding”.

B4: RalA (from cell lysates, detected with anti-RalA antibody) (protein, UniProt P11233 1-206)
chain: MAANKPKGQNSLALHKVIMVGSGGVGKSALTLQFMYDEFVEDYEPTKADSYRKKVVLDGEEVQIDILDTAGQEDYAAIRDNYFRSGEGFLCVFSITEMESFAATADFREQILRVKEDENVPFLLVGNKSDLEDKRQVSVEEAKNRAEQWNVNYVETSAKTRANVDKVFFDLMREIRARKMEDSKEKNGKKKRKSLAKRIRERCCIL
Take B4: the values for the binding entry with GST-Exo84(RBD) (human), with GST-RILP and in the test with GST-Sec5(RBD) (human) were “binds”, “no binding” and “binds”, respectively.
